{
  "source": "PubChem BioAssay AID686979",
  "about": "(National Center for Advancing Translational Sciences (NCATS), 2013)",
  "note": "Screen size: about 420,000 compounds; about 50,000 (12%) were called active. The inconclusive results got no clear call from the source; some entries with a clear call stand among them for comparison. The call rests on the fitted dose curve; in most records, active means well fitted inhibition curve with a large enough effect; inconclusive means small, poorly fitted or top-dose-only effect; inactive means flat fitted curve, though single readings scatter. Potencies of inconclusive entries are left out as doubtful fits. Some structures have more than one record in an assay (separate samples or runs), and their calls can disagree. On the % scale 0 is the no-effect control and ±100 the full control effect; potency means the concentration at half of the fitted maximal effect; tags describe the fitted curve by direction and shape.",
  "data": [
    {"experiment": "qHTS for Inhibitors of human tyrosyl-DNA phosphodiesterase 1 (TDP1): qHTS in cells in presence of CPT; further: nearly all actives have a fitted effect of over 55% in size", "settings": "chicken DT40 Tdp1-/-;hTDP1 cells + 20 nM CPT, ATP luminescence, 48 h; activity change, negative = growth inhibition: at 46.2 µM (top of the series)", "how_it_was_run": "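Chicken DT40 Tdp1-/- cells complemented with human TDP1, 400 cells/well, exposed to compounds plus 20 nM camptothecin for at least 48 h at 37 C; viability read as ATP content by CellTiter-Glo luminescence.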", "values": [
      {"smiles": "Cc1nn(-c2nnc(NCc3ccccc3)nn2)c(C)c1Br", "Potency": "inconclusive [inhibitor, single point]"},
      {"smiles": "CCN(CC)CCSc1nc2ccccc2c(=S)n1-c1ccccc1", "Potency": "inconclusive [inhibitor, single point]"},
      {"smiles": "Brc1ccc(-c2nnc(-c3ccccc3)c(N3CCSCC3)n2)cc1", "Potency": "inconclusive [inhibitor, single point]"},
      {"smiles": "COc1cc(Cl)c(C)cc1NC(=O)COc1ccc(C)nc1[N+](=O)[O-]", "Potency": "inconclusive [inhibitor, single point]"},
      {"smiles": "CCCc1cc(=O)[nH]c(SCc2nc(-c3ccccc3F)no2)n1", "activity change, negative = growth inhibition": "inactive: -24.5%"},
      {"smiles": "COc1ccc(-n2c(=O)c3c4c(sc3n3c(SC(C)C)nnc23)COC(C(C)C)C4)cc1", "note": "(stereo not given)", "Potency": "inconclusive [inhibitor, single point]"},
      {"smiles": "COc1ccc(S(=O)(=O)N2CCOC2CNC(=O)C(=O)NCc2cccnc2)cc1C", "note": "(stereo not given)", "activity change, negative = growth inhibition": "inconclusive: -39.4% [inhibitor]"},
      {"smiles": "Cc1[nH]n(-c2ccccc2)c(=O)c1N=Nc1ccc(C(=O)O)cc1", "Potency": "inconclusive [inhibitor, single point]"},
      {"smiles": "CCOC(=O)N1CCN(c2c(NCCN(C)Cc3ccccc3)c(=O)c2=O)CC1", "activity change, negative = growth inhibition": "inactive: -0.519%"},
      {"smiles": "CC1CC(C)CN(C(=O)COc2ccc([N+](=O)[O-])cc2Cl)C1", "note": "(stereo not given)", "Potency": "inconclusive [inhibitor, single point]"},
      {"smiles": "Cc1ccccc1-n1c(=O)c2c(n3cnnc13)-c1ccccc1CC21CCCCC1", "Potency": "inconclusive [inhibitor, single point]"},
      {"smiles": "N/C(=N/O)c1nc(N2CCCC2)nc(N(c2ccccc2)c2ccccc2)n1", "Potency": "inconclusive [inhibitor, single point]"},
      {"smiles": "Cc1c(NS(=O)(=O)c2cccc(C(=O)NCc3ccccc3Cl)c2)c(=O)n(-c2ccccc2)n1C", "Potency": "inconclusive [inhibitor, single point]"},
      {"smiles": "CN(C(=O)COC(=O)CCc1c[nH]c2ccccc12)c1ccccc1", "activity change, negative = growth inhibition": "inactive: -32.7%"},
      {"smiles": "C1=C(CCNc2ncnc3c2[nH]c2ccccc23)CCCC1", "Potency": "active: 0.731 µM"},
      {"smiles": "CCOC(=O)[C@@H]1[C@H]2COc3ccc(Br)cc3[C@H]2N2C(=O)N(c3ccc(C)cc3)C(=O)[C@@]12C", "Potency": "inconclusive [inhibitor, partial curve, poor fit]"},
      {"smiles": "COc1cc(=O)n2c(c1C(=O)N(C)Cc1nonc1C)CCN(C(=O)c1cccc(C)c1C)CC2", "activity change, negative = growth inhibition": "inactive: 4.72%"},
      {"smiles": "CC(=O)N/N=C\\c1cccc(OC/C=C/c2ccccc2)c1", "activity change, negative = growth inhibition": "inactive: -22%"},
      {"smiles": "O=C1CC(c2ccco2)CC(O)=C1C=NCCN1CCN(C2CC(=O)N(c3ccccc3)C2=O)CC1", "note": "(stereo not given)", "Potency": "inconclusive [inhibitor, single point]"},
      {"smiles": "Cc1ccc(-n2ncc(C(=O)NCCN3CCc4ccccc4C3)c2C2CCNCC2)cc1C", "Potency": "active: 20.6 µM"},
      {"smiles": "COCCCN(Cc1cc(OC)c(OC)c(OC)c1)C(=S)Nc1cccc(SC)c1", "Potency": "active: 16.4 µM"},
      {"smiles": "CCN(CC)CCC=C(c1cccs1)c1cccs1", "Potency": "inconclusive [inhibitor, partial curve, poor fit]"},
      {"smiles": "CN1CCC(N(C)CC(C)(C)NS(=O)(=O)c2ccccc2)CC1", "activity change, negative = growth inhibition": "inactive: 7.92%"},
      {"smiles": "O=c1[nH]c(C2CCN(S(=O)(=O)c3cccc(C(F)(F)F)c3)CC2)nc2c1nnn2Cc1cccc(F)c1", "Potency": "active: 18.4 µM"},
      {"smiles": "COc1ccc(C(CNC(=O)COc2ccccc2C)N2CCCCC2)cc1", "note": "(stereo not given)", "Potency": "active: 20.6 µM"},
      {"smiles": "CC1(C)Cc2c(sc3ncnc(NNC(=S)NCc4ccccc4)c23)CO1", "Potency": "inconclusive [inhibitor, single point]"},
      {"smiles": "CC(=O)c1cccc(Nc2ccc3cc(S(=O)(=O)N4CCCC4)ccc3n2)c1", "Potency": "inconclusive [inhibitor, single point]"},
      {"smiles": "COc1ccc(CC(=O)N[C@@H](C)C(=O)N2CCC3(CC2)NCCc2[nH]cnc23)cc1", "activity change, negative = growth inhibition": "inactive: 21.1%"},
      {"smiles": "CCN1CCCC1CNCC(O)COc1ccc(C(C)(C)C)cc1C", "note": "(stereo not given)", "Potency": "active: 6.51 µM"},
      {"smiles": "CCCNC(=O)c1c(N)n(-c2cc(OC)cc(OC)c2)c2nc3ccccc3nc12", "Potency": "inconclusive [inhibitor, single point]"},
      {"smiles": "CCOc1cc(Br)c(COc2ccc(C)nc2[N+](=O)[O-])cc1OCC", "Potency": "inconclusive [inhibitor, single point]"},
      {"smiles": "Cc1ccc([C@H]2N[C@]3(CCCN(Cc4ccco4)C3=O)[C@H]3C(=O)N(Cc4ccccc4)C(=O)[C@@H]23)cc1", "activity change, negative = growth inhibition": "inactive: -16.4%"},
      {"smiles": "CC(C)NS(=O)(=O)c1ccc(CCC(=O)Nc2cc(Cl)ccc2Oc2ccccc2)cc1", "Potency": "active: 23.1 µM"},
      {"smiles": "Cc1ccc(NC2CCCCC2NS(=O)(=O)c2ccccc2)c(C)c1", "note": "(stereo not given)", "Potency": "inconclusive [inhibitor, single point]"},
      {"smiles": "COc1cccc(CC(=O)N2CCN(c3ccccc3[N+](=O)[O-])CC2)c1", "activity change, negative = growth inhibition": "inconclusive: -34.5% [inhibitor]"},
      {"smiles": "CC1CCN(S(=O)(=O)c2ccc3c(c2)N(CC(=O)NCCCN2CCCC(C)C2)C(=O)CS3)CC1", "note": "(stereo not given)", "Potency": "active: 14.6 µM"},
      {"smiles": "C[C@H](NC(N)=O)C(=O)Nc1ccc(N2CCOCC2)c(S(=O)(=O)Nc2ccc(Cl)cc2)c1", "Potency": "active: 20.6 µM"},
      {"smiles": "CC(=O)c1c(C)[nH]c(C(=O)NC2CCSc3ccccc32)c1C", "note": "(stereo not given)", "Potency": "inconclusive [inhibitor, single point]"},
      {"smiles": "CN1C(=O)C2(OCC(COc3ccc(Cl)cc3)O2)c2ccccc21", "note": "(stereo not given)", "Potency": "inconclusive [inhibitor, single point]"},
      {"smiles": "C=CCn1c(Sc2ncc([N+](=O)[O-])s2)n[nH]c1=O", "Potency": "active: 0.411 µM"},
      {"smiles": "C=CCn1c(N)c(C(=O)Nc2cccc(C)c2)c2nc3ccccc3nc21", "activity change, negative = growth inhibition": "inactive: -23.8%"},
      {"smiles": "Cc1cccc(NC(=O)CSc2cccc[n+]2[O-])c1C", "activity change, negative = growth inhibition": "inactive: -7.13%"},
      {"smiles": "CCN(C(=O)Cc1ccc(Br)cc1)C1CCCCC1", "Potency": "active: 20.6 µM"},
      {"smiles": "COc1ccc(C(=O)Nc2ccc3oc(Cc4ccc(Cl)cc4)nc3c2)cc1OC", "Potency": "inconclusive [inhibitor, single point]"},
      {"smiles": "Cc1cccn2c(=O)nc(SCC(=O)N3CCC(Cc4ccccc4)CC3)nc12", "Potency": "inconclusive [inhibitor, single point]"},
      {"smiles": "CN(C)Cc1ccccc1-c1ccc2ncnc(N(C)C)c2c1", "Potency": "inconclusive [inhibitor, single point]"},
      {"smiles": "COc1ccc(C(=O)OCC(=O)c2ccc(C3CCCCC3)cc2)cc1", "Potency": "inconclusive [inhibitor, partial curve]"},
      {"smiles": "O=C(CCCCCn1c(=S)[nH]c2cc3c(cc2c1=O)OCO3)N1CCN(c2ccccc2)CC1", "Potency": "inconclusive [inhibitor, single point]"},
      {"smiles": "Cc1cccc(C)c1-n1c(SCC(=O)N2CC(=O)Nc3ccccc32)nc2ccccc2c1=O", "Potency": "inconclusive [inhibitor, single point]"},
      {"smiles": "Cc1nn(C)c2ncc(C(=O)c3cc(F)ccc3O)cc12", "Potency": "inconclusive [inhibitor, single point]"},
      {"smiles": "CCCNC(=O)C1(C)CCN(C(=O)c2ccc3c(c2)CCO3)C1", "note": "(stereo not given)", "Potency": "inconclusive [inhibitor, partial curve, poor fit]"},
      {"smiles": "COC(=O)c1ccc2c(=O)n(CC3CCCO3)c(SCC(=O)Nc3ccccc3Cl)nc2c1", "note": "(stereo not given)", "Potency": "inconclusive [inhibitor, single point]"},
      {"smiles": "O=C1NCCN1CCNc1nc(NCc2ccccc2)nc2ccsc12", "Potency": "inconclusive [inhibitor, single point]"},
      {"smiles": "Cc1ccc(/C(N)=N/OC(=O)/C=C/c2ccccc2)cc1", "activity change, negative = growth inhibition": "inactive: -24.6%"},
      {"smiles": "Cc1ccc(CC(=O)NC2CCSC2=O)cc1", "note": "(stereo not given)", "activity change, negative = growth inhibition": "inactive: 0.787%"},
      {"smiles": "COC(=O)CSc1ccc(S(=O)(=O)N2CCC(C)CC2)cc1[N+](=O)[O-]", "activity change, negative = growth inhibition": "inconclusive: -31.7% [inhibitor]"},
      {"smiles": "COc1ccc(C(C(=O)NC(C)C)N(C(=O)CCC(=O)Nc2nccs2)c2ccccc2F)cc1", "note": "(stereo not given)", "Potency": "inconclusive [inhibitor, single point]"},
      {"smiles": "CC(=O)Nc1cccc(-c2ccnc3c2CC(C(=O)NCc2cccc(Cl)c2)O3)c1", "note": "(stereo not given)", "Potency": "active: 3.26 µM"},
      {"smiles": "CC(C)CN(CC(C)C)CC(O)CN(c1ccccc1)S(=O)(=O)c1ccccc1[N+](=O)[O-]", "note": "(stereo not given)", "Potency": "inconclusive [inhibitor, single point]"},
      {"smiles": "Cc1ccc2c(c1)-c1ncc(C(=O)c3cc(Br)ccc3O)cc1CO2", "Potency": "inconclusive [inhibitor, single point]"},
      {"smiles": "COc1ccc(Oc2ncc3ncc(=O)n(C4CC4)c3n2)cc1", "activity change, negative = growth inhibition": "inactive: -4.81%"},
      {"smiles": "O=C(Nc1ccc(-c2nc3ccccc3[nH]2)cc1)c1ccco1", "Potency": "active: 14.6 µM"},
      {"smiles": "Cc1ccccc1NS(=O)(=O)c1ccc2c3c(cccc13)C(=O)N2C", "Potency": "inconclusive [inhibitor, single point]"},
      {"smiles": "NC(=O)c1nsc(C(=O)N(Cc2ccccc2F)C(C(=O)NCC2CCCO2)c2ccc(F)cc2)c1N", "note": "(stereo not given)", "Potency": "inconclusive [inhibitor, single point]"},
      {"smiles": "CC(=O)c1ccc(N2CCN(c3ncnc4c3cnn4C)CC2)cc1", "Potency": "inconclusive [inhibitor, full curve]"},
      {"smiles": "COc1ccc(C(=O)Nc2nc(CC(=O)NCCc3cccc(OC)c3)cs2)cc1", "Potency": "inconclusive [inhibitor, single point]"},
      {"smiles": "CC(=O)c1cc(CN2CCN(CCc3ccccc3)C(CCO)C2)cs1", "note": "(stereo not given)", "activity change, negative = growth inhibition": "inactive: 7.73%"},
      {"smiles": "c1ccc(-c2ccccc2OCCOCCN2CCOCC2)cc1", "activity change, negative = growth inhibition": "inactive: -17.5%"},
      {"smiles": "CC(CNC(=O)c1ccc(-c2ccccc2)cc1)CN(C)C", "note": "(stereo not given)", "activity change, negative = growth inhibition": "inactive: 7.9%"},
      {"smiles": "CCN(c1ccccc1)S(=O)(=O)c1cc2c(cc1C)n(C)c(=O)c(=O)n2C", "activity change, negative = growth inhibition": "inactive: 11.4%"}
    ]}
  ]
}
